Test results reported in the supplement of paper PMC8728848.
This is one part of the list.

Key:
Experiment in all cases: glycan array binding signal (z-score within array); higher = stronger binding
Settings in all cases: glycan notation: IUPAC condensed, linker removed
[1] = biological target: Gal(b1-3)[Fuc(a1-4)]GlcNAc
Summary of the method: (§1)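 Glycan array binding is given as a within-array Z-score, which can be read as non-binding when negative. The arrays, 3228 of them, came from the Consortium for Functional Glycomics database and were retained only where the protein sequence was available. Z-scores were averaged across arrays of the same protein sequence at different concentrations or buffers and across linkers.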

[2] = biological target: Gal(b1-3)[Fuc(a1-4)]GlcNAc(b1-2)Man(a1-3)[Gal(b1-3)[Fuc(a1-4)]GlcNAc(b1-2)Man(a1-6)]Man(b1-4)GlcNAc(b1-4)GlcNAc
Summary of the method: as §1

[3] = biological target: Gal(b1-3)[Fuc(a1-4)]GlcNAc(b1-2)Man(a1-3)[Gal(b1-3)[Fuc(a1-4)]GlcNAc(b1-2)Man(a1-6)]Man(b1-4)GlcNAc(b1-4)[Fuc(a1-6)]GlcNAc
Summary of the method: as §1

[4] = biological target: Gal(b1-3)[Fuc(a1-4)]GlcNAc(b1-3)Gal(b1-3)[Fuc(a1-4)]GlcNAc
Summary of the method: as §1

[5] = biological target: Gal(b1-3)[Fuc(a1-4)]GlcNAc(b1-3)Gal(b1-4)GlcNAc
Summary of the method: as §1

[6] = biological target: Gal(b1-3)[Fuc(a1-4)]GlcNAc(b1-3)Gal(b1-4)[Fuc(a1-3)]GlcNAc
Summary of the method: as §1

[7] = biological target: Gal(b1-3)[GlcNAc(b1-6)]GalNAc
Summary of the method: as §1

[8] = biological target: Gal(b1-3)[Neu5Ac(a2-6)]GalNAc
Summary of the method: as §1

[9] = biological target: Gal(b1-3)[Neu5Ac(a2-6)]GlcNAc(b1-6)Gal(b1-4)Glc
Summary of the method: as §1

[10] = biological target: Gal(b1-3)[Neu5Ac(b2-6)]GalNAc
Summary of the method: as §1

[11] = biological target: Gal(b1-4)GalNAc(a1-3)[Fuc(a1-2)]Gal(b1-4)GlcNAc
Summary of the method: as §1

[12] = biological target: Gal(b1-4)GalNAc(b1-3)[Fuc(a1-2)]Gal(b1-4)GlcNAc
Summary of the method: as §1

[13] = biological target: Gal(b1-4)Glc
Summary of the method: as §1

[14] = biological target: Gal(b1-4)Glc6S
Summary of the method: as §1

[15] = biological target: Gal(b1-4)GlcNAc
Summary of the method: as §1

[16] = biological target: Gal(b1-4)GlcNAc(a1-6)Gal(b1-4)GlcNAc
Summary of the method: as §1

[17] = biological target: Gal(b1-4)GlcNAc(b1-2)Man(a1-3)Man(b1-4)GlcNAc(b1-4)GlcNAc
Summary of the method: as §1

[18] = biological target: Gal(b1-4)GlcNAc(b1-2)Man(a1-3)[Gal(b1-4)GlcNAc(b1-2)Man(a1-6)]Man(b1-4)GlcNAc(b1-4)GlcNAc
Summary of the method: as §1

[19] = biological target: Gal(b1-4)GlcNAc(b1-2)Man(a1-3)[Gal(b1-4)GlcNAc(b1-2)Man(a1-6)]Man(b1-4)GlcNAc(b1-4)[Fuc(a1-6)]GlcNAc
Summary of the method: as §1

[20] = biological target: Gal(b1-4)GlcNAc(b1-2)Man(a1-3)[Man(a1-6)]Man(b1-4)GlcNAc(b1-4)GlcNAc
Summary of the method: as §1

[21] = biological target: Gal(b1-4)GlcNAc(b1-2)Man(a1-6)Man(b1-4)GlcNAc(b1-4)GlcNAc
Summary of the method: as §1

[22] = biological target: Gal(b1-4)GlcNAc(b1-2)Man(a1-6)[Man(a1-3)]Man(b1-4)GlcNAc(b1-4)GlcNAc
Summary of the method: as §1

[23] = biological target: Gal(b1-4)GlcNAc(b1-2)[Gal(b1-4)GlcNAc(b1-4)]Man(a1-3)[Gal(b1-4)GlcNAc(b1-2)Man(a1-6)]Man(b1-4)GlcNAc(b1-4)GlcNAc
Summary of the method: as §1

[24] = biological target: Gal(b1-4)GlcNAc(b1-3)Gal(b1-3)GlcNAc
Summary of the method: as §1

[25] = biological target: Gal(b1-4)GlcNAc(b1-3)Gal(b1-4)Glc
Summary of the method: as §1

[26] = biological target: Gal(b1-4)GlcNAc(b1-3)Gal(b1-4)GlcNAc
Summary of the method: as §1

[27] = biological target: Gal(b1-4)GlcNAc(b1-3)Gal(b1-4)GlcNAc(b1-3)Gal(b1-4)GlcNAc
Summary of the method: as §1

[28] = biological target: Gal(b1-4)GlcNAc(b1-3)Gal(b1-4)[Fuc(a1-3)]GlcNAc(b1-3)Gal(b1-4)[Fuc(a1-3)]GlcNAc
Summary of the method: as §1

[29] = biological target: Gal(b1-4)GlcNAc(b1-3)GalNAc
Summary of the method: as §1

[30] = biological target: Gal(b1-4)GlcNAc(b1-3)[Gal(b1-4)GlcNAc(b1-6)]Gal(b1-4)GlcNAc
Summary of the method: as §1

[31] = biological target: Gal(b1-4)GlcNAc(b1-3)[GlcNAc(b1-6)]Gal(b1-4)GlcNAc
Summary of the method: as §1

[32] = biological target: Gal(b1-4)GlcNAc(b1-6)Gal(b1-4)GlcNAc
Summary of the method: as §1

[33] = biological target: Gal(b1-4)GlcNAc(b1-6)Gal(b1-4)GlcNAc(b1-6)GalNAc
Summary of the method: as §1

[34] = biological target: Gal(b1-4)GlcNAc(b1-6)GalNAc
Summary of the method: as §1

[35] = biological target: Gal(b1-4)GlcNAc(b1-6)[Gal(b1-3)]GalNAc
Summary of the method: as §1

[36] = biological target: Gal3S(b1-3)GalNAc
Summary of the method: as §1

[37] = biological target: Gal3S(b1-3)GlcNAc
Summary of the method: as §1

[38] = biological target: Gal3S(b1-3)[Fuc(a1-4)]GlcNAc
Summary of the method: as §1

[39] = biological target: Gal3S(b1-4)Glc
Summary of the method: as §1

[40] = biological target: Gal3S(b1-4)Glc6S
Summary of the method: as §1

[41] = biological target: Gal3S(b1-4)GlcNAc
Summary of the method: as §1

[42] = biological target: Gal3S(b1-4)GlcNAc6S
Summary of the method: as §1

[43] = biological target: Gal3S(b1-4)[Fuc(a1-3)]Glc
Summary of the method: as §1

[44] = biological target: Gal3S4S(b1-4)GlcNAc
Summary of the method: as §1

[45] = biological target: Gal3S6S(b1-4)GlcNAc
Summary of the method: as §1

B1: DC-ASPGR (Homo sapiens), CLC10_HUMAN (protein)
chain: LDQNSKFQRDLVTLRTDFSNFTSNTVAEIQALTSQGSSLEETIASLKAEVEGFKQERQAVHSEMLLRVQQLVQDLKKLTCQVATLNNNASTEGTCCPVNWVEHQDSCYWFSHSGMSWAEAEKYCQLKNAHLVVINSREEQNFVQKYLGSAYTWMGLSDPEGAWKWVDGTDYATGFQNWKPGQPDDWQGHGLGGGEDCAHFHPDGRWNDDVCQRPYHWVCEAGLGQTSQESHVEPKSCDKTHTCPPCPAPELLGGPSVFLFPPKPKDTLMISRTPEVTCVVVDVSHEDPEVKFNWYVDGVEVHNAKTKPREEQFNSTYRVVSVLTVLHQDWLNGKEYKCKVSNKGLPSSIEKTISKAKGQPREPQVYTLPPSQEEMTKNQVSLTCLVKGFYPSDIAVEWESNGQPENNYKTTPPVLDSDGSFFLYSRLTVDKSRWQEGNVFSCSVMHEALHNHYTQK
With B1 the “glycan array binding signal (z-score)” value [1] was -0.199, the “glycan array binding signal (z-score)” value [2] was 0.17 and the “glycan array binding signal (z-score)” value [3] was -0.15. The “glycan array binding signal (z-score)” value [4] was -0.187, the “glycan array binding signal (z-score)” value [5] was -0.19 and the “glycan array binding signal (z-score)” value [6] was -0.199. The “glycan array binding signal (z-score)” value [7] was -0.204, the “glycan array binding signal (z-score)” value [8] was -0.118 and the “glycan array binding signal (z-score)” value [9] was -0.087. For the same binder, the “glycan array binding signal (z-score)” value [10] was -0.25, the “glycan array binding signal (z-score)” value [11] was -0.198 and the “glycan array binding signal (z-score)” value [12] was -0.278. The “glycan array binding signal (z-score)” value [13] was -0.238, the “glycan array binding signal (z-score)” value [14] was -0.228 and the “glycan array binding signal (z-score)” value [15] was -0.253. The “glycan array binding signal (z-score)” value [16] was -0.281, the “glycan array binding signal (z-score)” value [17] was -0.268 and the “glycan array binding signal (z-score)” value [18] was -0.177. For the same binder, the “glycan array binding signal (z-score)” value [19] was -0.232, the “glycan array binding signal (z-score)” value [20] was -0.194 and the “glycan array binding signal (z-score)” value [21] was -0.192. The “glycan array binding signal (z-score)” value [22] was -0.175, the “glycan array binding signal (z-score)” value [23] was -0.101 and the “glycan array binding signal (z-score)” value [24] was -0.195. The “glycan array binding signal (z-score)” value [25] was -0.176, the “glycan array binding signal (z-score)” value [26] was -0.065 and the “glycan array binding signal (z-score)” value [27] was -0.217. The “glycan array binding signal (z-score)” value [28] was -0.197, the “glycan array binding signal (z-score)” value [29] was -0.175 and the “glycan array binding signal (z-score)” value [30] was -0.154. The “glycan array binding signal (z-score)” value [31] was -0.172, the “glycan array binding signal (z-score)” value [32] was -0.137 and the “glycan array binding signal (z-score)” value [33] was -0.298. The “glycan array binding signal (z-score)” value [34] was 3.86, the “glycan array binding signal (z-score)” value [35] was -0.173 and the “glycan array binding signal (z-score)” value [36] was -0.146. For the same binder, the “glycan array binding signal (z-score)” value [37] was -0.229, the “glycan array binding signal (z-score)” value [38] was -0.063 and the “glycan array binding signal (z-score)” value [39] was -0.178. The “glycan array binding signal (z-score)” value [40] was -0.096, the “glycan array binding signal (z-score)” value [41] was -0.212 and the “glycan array binding signal (z-score)” value [42] was -0.213. The “glycan array binding signal (z-score)” value [43] was -0.149, the “glycan array binding signal (z-score)” value [44] was -0.044 and the “glycan array binding signal (z-score)” value [45] was -0.208.
